Results reported in publication PMC6919601, “Identification of Plasmodium dipeptidyl aminopeptidase allosteric inhibitors by high throughput screening” (PLoS ONE, 2019).
Screen size: about 110,000 compounds; about 230 (0.21%) showed an effect of 50% or more. The list shows a part of the results.

These molecules were tested against DPAP1 (Plasmodium falciparum, UniProt Q8IIJ9) (assay: primary screen, percent inhibition; read by cleavage of a fluorogenic dipeptide substrate; higher = more effect of the substance).
Design: species or system P. falciparum D10 trophozoite lysates; single well
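Also: 30 min substrate incubation versus DMSO and 10 µM JCP410 controls.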

DPAP1, sequence (Q8IIJ9 whole entry, looked up): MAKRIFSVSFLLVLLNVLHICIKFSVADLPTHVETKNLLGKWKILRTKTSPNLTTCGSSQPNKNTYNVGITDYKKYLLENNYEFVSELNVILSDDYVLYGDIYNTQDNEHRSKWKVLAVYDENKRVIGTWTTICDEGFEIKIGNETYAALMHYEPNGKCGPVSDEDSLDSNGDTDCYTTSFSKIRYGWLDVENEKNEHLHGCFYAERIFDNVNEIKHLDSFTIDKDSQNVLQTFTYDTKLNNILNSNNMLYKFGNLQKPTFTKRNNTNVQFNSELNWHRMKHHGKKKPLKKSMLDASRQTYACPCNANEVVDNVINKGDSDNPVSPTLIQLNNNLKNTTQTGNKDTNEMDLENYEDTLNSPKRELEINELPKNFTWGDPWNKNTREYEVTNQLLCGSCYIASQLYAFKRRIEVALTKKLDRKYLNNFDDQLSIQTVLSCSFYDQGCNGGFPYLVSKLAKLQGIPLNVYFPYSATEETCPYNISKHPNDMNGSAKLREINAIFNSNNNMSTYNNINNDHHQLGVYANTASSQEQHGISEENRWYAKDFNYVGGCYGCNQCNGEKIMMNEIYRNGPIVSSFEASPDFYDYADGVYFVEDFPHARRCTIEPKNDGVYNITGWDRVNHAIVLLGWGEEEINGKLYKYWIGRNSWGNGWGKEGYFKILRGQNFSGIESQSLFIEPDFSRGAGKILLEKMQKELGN

Row | Compound | % Inhibition @ 10 uM [%]
1 | O=S(=O)(Nc1cccc(F)c1)c1ccc(-c2ccccc2)cc1 | 3
2 | O=C1C2C3CCC(O3)C2C(=O)N1c1ccc(Cl)cn1 (centres unmarked) | -0.999
3 | CCc1ccc(CNC(=O)CN(C)c2nn3c(=O)cc(C)nc3s2)cc1 | 4.55
4 | Cc1ccccc1OC1=NS(=O)(=O)c2ccccc21 | 0.343
5 | Cc1ccc(CNC(=O)c2cnccn2)cc1 | 0.795
6 | Cn1c(=O)c2sccc2n2c(CCCC(=O)N3CCN(C(=O)c4ccco4)CC3)nnc12 | -0.212
7 | CC1(C)CC(=O)c2cnc(NCCc3ccccc3)nc2C1 | 3.87
8 | O=S(=O)(NCCN(Cc1ccco1)C1CCCC1)c1ccc(-c2cc(C(F)(F)F)no2)s1 | -3.07
9 | O=C(Nc1c2c(nn1-c1cccc(Cl)c1)CS(=O)(=O)C2)c1ccc(C(=O)c2ccccc2)cc1 | -0.967
10 | Cn1c(=O)c2c(ncn2CC(=O)NCc2ccccc2)n(C)c1=O | -1.38
11 | COc1ccccc1-c1nnc2sc(/C=C/c3ccccc3)nn12 | 6.01
12 | COc1ccc(NC(=O)CSCc2cccc(Br)c2)cc1 | -0.0217
13 | O=C1CCN(C(=O)c2cccs2)c2ccccc21 | 0.317
14 | CCN(CC)S(=O)(=O)c1cc(C(=O)Nc2ccc(Cl)cn2)ccc1OC | -2.26
15 | CSc1nnnn1-c1ccccc1 | -4.08
16 | COc1ccc(-n2c(S)nnc2CN2CCN(C)CC2)cc1 | -0.969
17 | Cc1nc(O)nc(O)c1S(=O)(=O)N1CCN(C(=O)c2cc(-c3ccco3)[nH]n2)CC1 | -1.87
18 | CC1CCC2(CC1)N=C(c1cccc(F)c1)C(=S)N2 (centres unmarked) | 12.4
19 | O=C(NCCCO)c1ccc2snnc2c1 | 1.43
20 | Cc1cc(O)nc2c1cnn2Cc1ccccc1 | -0.45
21 | N#C/C(=C\c1ccc([N+](=O)[O-])cc1)c1nc(-c2ccccc2)cs1 | -0.268
22 | NC(=O)C1CCN(c2ccc(C(F)(F)F)cn2)CC1 | -4.73

Row | Compound | % Inhibition @ 10 uM [%]
23 | CCN1CN=C2SC(CO)(CO)C(=O)N2C1 | 1.37
24 | Cc1oc2c(c(C)cc3oc(=O)c(C)c(C)c32)c1C | -1.15
25 | CCOc1ccc(N2C(=O)CC(N3CCN(Cc4ccccc4)CC3)C2=O)cc1 (centres unmarked) | 4.06
26 | O=S(=O)(Nc1nc2c(s1)CCCC2)c1ccc(Br)cc1 | 2.37
27 | Cc1nnc(SC2CCNCC2)s1 | 2.29
28 | CCO/C(O)=C/C1=Nc2cc(C)c(C)cc2NC(=O)C1 | 2.41
29 | CCC[C@H](NC(=O)C(Cc1c(F)cccc1F)NC(=O)c1ccc(-c2ccccc2Cl)cc1)C(=O)c1nnc(CC)o1 (some centres unmarked) | -5.2
30 | COc1ccc(OC)c(NC(=O)c2ccncc2)c1 | -3.45
31 | COc1ccccc1N1C(=O)c2ccccc2NC1c1cc(Cl)cc2c1OCOC2 (centres unmarked) | -12
32 | CC(Oc1ccccc1F)C(=O)Nc1ccc(S(=O)(=O)N2CCCCC2)cc1 (centres unmarked) | -0.132
33 | C=CCNC(=O)CC(NS(=O)(=O)c1ccc(OC)cc1)c1ccco1 (centres unmarked) | 4.47
34 | CN(C)/C=N/c1c(C#N)cnn1-c1ncnc2sc3c(c12)CCC3 | -1.6
35 | CCN(CC)S(=O)(=O)c1ccc(NS(=O)(=O)c2ccc(NC(C)=O)cc2)cc1 | 2.27
36 | Cc1nc2nc(NC(=O)CC(C)C)nn2c(O)c1Cl | 0.401
37 | COc1ccccc1CC(C)N[C@H]1CCCCNC1=O (some centres unmarked) | 1.57
38 | Cc1ccc(-c2noc(CN3CCC(C)CC3)n2)cc1 | -5.23
39 | O=C(Nc1ccc(S(=O)(=O)c2ccc(NC(=O)c3ccccc3)cc2)cc1)c1ccccc1 | 2.94
40 | Cc1nc(Oc2ccc3c(C)cc(=O)oc3c2)c2c3c(sc2n1)CCC3 | 0.685
41 | COc1cccc(C2=NOC(C(=O)N3CCN(Cc4ccccc4)CC3)C2)c1OC (centres unmarked) | -0.431
42 | CCOc1ccc(C2NC(=O)N(C)C(C)=C2C(=O)Nc2ccccc2)cc1 (centres unmarked) | -3.69
43 | COc1ccc(-c2noc(CN(C(=O)C34CC5CC(CC(C5)C3)C4)C(C)C)n2)cc1 | -0.352
44 | COc1cc(CNCc2cccnc2)ccc1OCc1ccccc1F | 2.84

Row | Compound | % Inhibition @ 10 uM [%]
45 | CCCOc1ccc2cc(C(=O)O)ccc2c1Cl | -2.6
46 | Cc1ccc(NC(=O)c2sc3nc(N)c(C#N)cc3c2N)c(Br)c1 | 6.65
47 | CCOc1ccc2ccccc2c1/C=C1/NC(=O)N(CC)C1=O | -4.03
48 | CC(=O)c1cc(-c2ccc(F)cc2)n(CC(=O)NC(C)(C)C)c1C | -5.47
49 | Cc1noc2ncnc(N3CCCC(C(=O)NCCN(C)C)C3)c12 (centres unmarked) | 6.45
50 | O=C(COCc1cc(-c2ccc3c(c2)OCO3)on1)NCC1CCCO1 (centres unmarked) | 5.32
51 | CCCNc1nc(SCc2ccc(Cl)cc2)nnc1C | -2.99
52 | Cc1cc(C(F)(F)F)c(C#N)c(SCc2ccccc2)n1 | 2.23
53 | Cc1nn(CC(=O)NC2CCN(Cc3ccccc3)CC2)c(=O)c2cccn12 | -3.1
54 | CC(=O)c1ccc(C(=O)NCCOc2ccccc2)cc1 | -2.85
55 | Cc1ccc(C)c(S(=O)(=O)Nc2ccc(C(=O)NCc3ccco3)cc2)c1 | -1.61
56 | Cc1ccc2oc(=O)c3cnn(CC(=O)NCCN4CCc5ccccc5C4)c3c2c1 | 3.2
57 | Cc1ccc(S(=O)(=O)N2CCCC(C(=O)NCCCN3CCCCC3C)C2)cc1 (centres unmarked) | 5.23
58 | N#Cc1c(N)nc(S)c(C#N)c1-c1cccc([N+](=O)[O-])c1 | 48.8
59 | CC1CCCN(S(=O)(=O)c2cc(C(=O)O)ccc2F)C1 (centres unmarked) | -5.64
60 | O=C(c1ccc(-c2ccccc2)s1)N1CCc2ccccc2C1 | 5.91
61 | Cc1ccc(C(=O)N/C(=C\c2cccc(Br)c2)C(=O)N2CCOCC2)cc1 | 2.69
62 | CCOc1ccccc1NC(=O)CN(c1cc(C)ccc1C)S(C)(=O)=O | -6.77
63 | CC(=O)c1ccc(-n2c(C)ccc2-c2ccccc2)cc1 | -3.14
64 | CCCc1ccc(OCC(=O)Nc2cc([N+](=O)[O-])ccc2C)cc1 | 1.33
65 | COc1cc(C)c(S(=O)(=O)N2CCN(Cc3ccccc3)CC2)cc1C(C)C | 3.68
